{"source": "the supplement of paper PMC10126150", "note": "Sequences with one replicate were seen in a single cluster, so their values are uncertain.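 Note: ATP exposure 15 min at 22 °C before imaging.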"}
{"test_system": "ATP", "test": "switch fluorescence ratio, 500 uM ATP over buffer (Cy3 cluster intensity, sum of 5 cycles each) (fold (ratio)); higher = stronger signal-on switching upon ATP binding; sequences stand for … in TCGTCGGCAGCGTCAGATGTGTATAAGAGACAGTTTTTTTTTTTTTTTTTTTTTTTTT…TC", "details": "aptamer strand: ATP DNA aptamer (quencher-CACCTGGGGGAGTATTGCGGAGGAAGG + anchor), 100 nM annealed; ATP concentration: 500 uM; one replicate", "how_it_was_run": "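Values give the fluorescence ratio for each switch-domain sequence, averaged from per-cluster ratios of summed target-cycle to summed buffer-cycle Cy3 intensity. The Cy3-labelled switching-strand clusters sat on a modified Illumina MiSeq flow-cell, were annealed to 100 nM quencher-labelled ATP aptamer, and were imaged in selection buffer, then after 15 min with 500 uM ATP at 22 °C. Five cycles ran with NaOH stripping and re-annealing between them, and clusters outside 100-1000 RFU were excluded.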"}
{"sequence": "GTGCGAAGGT", "switch fluorescence ratio": 0.991}
{"sequence": "GTGCGAGCGT", "switch fluorescence ratio": 0.973}
{"sequence": "GTGCGCAGGT", "switch fluorescence ratio": 1.03}
{"sequence": "GTGCGCCCTA", "switch fluorescence ratio": 1.02}
{"sequence": "GTGCTAGGCC", "switch fluorescence ratio": 1.01}
{"sequence": "GTGCTTGCAG", "switch fluorescence ratio": 0.988}
{"sequence": "GTGGACGTAT", "switch fluorescence ratio": 1}
{"sequence": "GTGGACTGCT", "switch fluorescence ratio": 0.932}
{"sequence": "GTGGAGTACG", "switch fluorescence ratio": 1}
{"sequence": "GTGGATATGA", "switch fluorescence ratio": 1.02}
{"sequence": "GTGGCACAGC", "switch fluorescence ratio": 1.01}
{"sequence": "GTGGCATGCT", "switch fluorescence ratio": 1.01}
{"sequence": "GTGGCATTAT", "switch fluorescence ratio": 1.07}
{"sequence": "GTGGCCGTAG", "switch fluorescence ratio": 0.978}
{"sequence": "GTGGCGACGG", "switch fluorescence ratio": 1.06}
{"sequence": "GTGGCGCGCG", "switch fluorescence ratio": 0.979}
{"sequence": "GTGGCGGCG", "switch fluorescence ratio": 1.01}
{"sequence": "GTGGCGGGTC", "switch fluorescence ratio": 0.967}
{"sequence": "GTGGCGTCTT", "switch fluorescence ratio": 1}
{"sequence": "GTGGCTTAAG", "switch fluorescence ratio": 1}
{"sequence": "GTGGGAAACA", "switch fluorescence ratio": 1.02}
{"sequence": "GTGGGATGCA", "switch fluorescence ratio": 1.07}
{"sequence": "GTGGGCATAC", "switch fluorescence ratio": 2.05}
{"sequence": "GTGGGCCTT", "switch fluorescence ratio": 0.992}
{"sequence": "GTGGGGAAGC", "switch fluorescence ratio": 0.952}
{"sequence": "GTGGGGCCCA", "switch fluorescence ratio": 1.04}
{"sequence": "GTGGGGCTG", "switch fluorescence ratio": 0.94}
{"sequence": "GTGGGTAAAT", "switch fluorescence ratio": 1}
{"sequence": "GTGGGTACTT", "switch fluorescence ratio": 1.03}
{"sequence": "GTGGGTATCT", "switch fluorescence ratio": 1.01}
{"sequence": "GTGGTACTTT", "switch fluorescence ratio": 1}
{"sequence": "GTGGTAGTAA", "switch fluorescence ratio": 0.959}
{"sequence": "GTGGTCAGCT", "switch fluorescence ratio": 0.975}
{"sequence": "GTGGTCTTGC", "switch fluorescence ratio": 0.997}
{"sequence": "GTGGTGAAGA", "switch fluorescence ratio": 0.969}
{"sequence": "GTGGTGGTGA", "switch fluorescence ratio": 1.01}
{"sequence": "GTGGTGTATT", "switch fluorescence ratio": 0.966}
{"sequence": "GTGGTGTGAC", "switch fluorescence ratio": 1.01}
{"sequence": "GTGGTTACGG", "switch fluorescence ratio": 0.989}
{"sequence": "GTGGTTGTA", "switch fluorescence ratio": 0.972}
{"sequence": "GTGGTTTCG", "switch fluorescence ratio": 0.986}
{"sequence": "GTGGTTTGAT", "switch fluorescence ratio": 1.01}
{"sequence": "GTGTAACTGC", "switch fluorescence ratio": 0.989}
{"sequence": "GTGTAATTT", "switch fluorescence ratio": 0.981}
{"sequence": "GTGTAGCGAT", "switch fluorescence ratio": 1.66}
{"sequence": "GTGTCAGCAC", "switch fluorescence ratio": 0.973}
{"sequence": "GTGTCAGCGA", "switch fluorescence ratio": 0.985}
{"sequence": "GTGTCATGTA", "switch fluorescence ratio": 0.995}
{"sequence": "GTGTCTGAGA", "switch fluorescence ratio": 1.04}
{"sequence": "GTGTGAAGGG", "switch fluorescence ratio": 1.02}
{"sequence": "GTGTGAGCTG", "switch fluorescence ratio": 0.933}
{"sequence": "GTGTGAGTG", "switch fluorescence ratio": 1.05}
{"sequence": "GTGTGCAATA", "switch fluorescence ratio": 1.25}
{"sequence": "GTGTGCATTG", "switch fluorescence ratio": 1.03}
{"sequence": "GTGTGCCTAC", "switch fluorescence ratio": 1.01}
{"sequence": "GTGTGCGAGG", "switch fluorescence ratio": 0.968}
{"sequence": "GTGTGCTGAA", "switch fluorescence ratio": 1.04}
{"sequence": "GTGTGGTTGA", "switch fluorescence ratio": 1}
{"sequence": "GTGTGTAAAT", "switch fluorescence ratio": 0.952}
{"sequence": "GTGTGTAATC", "switch fluorescence ratio": 1.05}
{"sequence": "GTGTGTCCAA", "switch fluorescence ratio": 0.999}
{"sequence": "GTGTGTTGGT", "switch fluorescence ratio": 0.939}
{"sequence": "GTGTTAAACG", "switch fluorescence ratio": 1.06}
{"sequence": "GTGTTCTAAT", "switch fluorescence ratio": 0.953}
{"sequence": "GTGTTGCTAT", "switch fluorescence ratio": 0.984}
{"sequence": "GTGTTGGTGC", "switch fluorescence ratio": 1.06}
{"sequence": "GTGTTGTTTA", "switch fluorescence ratio": 1.06}
{"sequence": "GTGTTTACTA", "switch fluorescence ratio": 1.02}
{"sequence": "GTGTTTCAGA", "switch fluorescence ratio": 0.997}
{"sequence": "GTGTTTTATC", "switch fluorescence ratio": 1.05}
{"sequence": "GTGTTTTTG", "switch fluorescence ratio": 1.01}
{"sequence": "GTTAAACGTC", "switch fluorescence ratio": 0.888}
{"sequence": "GTTAAATGG", "switch fluorescence ratio": 1.02}
{"sequence": "GTTAACAGTG", "switch fluorescence ratio": 1.04}
{"sequence": "GTTAAGACCA", "switch fluorescence ratio": 1.03}
{"sequence": "GTTAAGTTGG", "switch fluorescence ratio": 0.996}
{"sequence": "GTTAATTTCA", "switch fluorescence ratio": 1.02}
{"sequence": "GTTACCACGC", "switch fluorescence ratio": 1.03}
{"sequence": "GTTACGGTTA", "switch fluorescence ratio": 1.05}
{"sequence": "GTTACGTAAA", "switch fluorescence ratio": 1.19}
{"sequence": "GTTACTGTTG", "switch fluorescence ratio": 1.03}
{"sequence": "GTTAGAAAAC", "switch fluorescence ratio": 1.05}
{"sequence": "GTTAGAGTCC", "switch fluorescence ratio": 0.919}
{"sequence": "GTTAGCTCTG", "switch fluorescence ratio": 0.989}
{"sequence": "GTTAGGAGGA", "switch fluorescence ratio": 0.989}
{"sequence": "GTTAGGATGA", "switch fluorescence ratio": 0.983}
{"sequence": "GTTAGGATTG", "switch fluorescence ratio": 0.971}
{"sequence": "GTTAGGGAGT", "switch fluorescence ratio": 0.988}
{"sequence": "GTTAGGGTGC", "switch fluorescence ratio": 1.05}
{"sequence": "GTTAGTGAAG", "switch fluorescence ratio": 0.963}
{"sequence": "GTTAGTGTTC", "switch fluorescence ratio": 1.1}
{"sequence": "GTTAGTTCCG", "switch fluorescence ratio": 0.982}
{"sequence": "GTTATAAGCG", "switch fluorescence ratio": 0.933}
{"sequence": "GTTATAGATC", "switch fluorescence ratio": 0.979}
{"sequence": "GTTATAGGTT", "switch fluorescence ratio": 0.957}
{"sequence": "GTTATCAATG", "switch fluorescence ratio": 0.996}
{"sequence": "GTTATCTGCC", "switch fluorescence ratio": 1.02}
{"sequence": "GTTATCTTAA", "switch fluorescence ratio": 0.992}
{"sequence": "GTTATGTCAG", "switch fluorescence ratio": 0.99}
{"sequence": "GTTATGTTAT", "switch fluorescence ratio": 1.06}
{"sequence": "GTTATTAGG", "switch fluorescence ratio": 0.996}
{"sequence": "GTTCAACCGA", "switch fluorescence ratio": 1.11}
{"sequence": "GTTCAACGTG", "switch fluorescence ratio": 0.941}
{"sequence": "GTTCAGGGTG", "switch fluorescence ratio": 1.22}
{"sequence": "GTTCATTTGG", "switch fluorescence ratio": 1}
{"sequence": "GTTCCAAGTG", "switch fluorescence ratio": 1.05}
{"sequence": "GTTCCCTGTG", "switch fluorescence ratio": 1.05}
{"sequence": "GTTCCGAATG", "switch fluorescence ratio": 1.09}
{"sequence": "GTTCCTCAAA", "switch fluorescence ratio": 1.25}
{"sequence": "GTTCCTGTTT", "switch fluorescence ratio": 1.03}
{"sequence": "GTTCGAATAT", "switch fluorescence ratio": 0.99}
{"sequence": "GTTCGACCAA", "switch fluorescence ratio": 1.05}
{"sequence": "GTTCGATTCT", "switch fluorescence ratio": 0.982}
{"sequence": "GTTCGCTACC", "switch fluorescence ratio": 1.38}
{"sequence": "GTTCGCTTAT", "switch fluorescence ratio": 1.11}
{"sequence": "GTTCGGGAGA", "switch fluorescence ratio": 0.999}
{"sequence": "GTTCGGGTC", "switch fluorescence ratio": 0.954}
{"sequence": "GTTCTAATCC", "switch fluorescence ratio": 1}
{"sequence": "GTTCTATGTG", "switch fluorescence ratio": 0.989}
{"sequence": "GTTCTCACGT", "switch fluorescence ratio": 1}
{"sequence": "GTTCTGGCAT", "switch fluorescence ratio": 1.05}
{"sequence": "GTTCTGGCGT", "switch fluorescence ratio": 1.01}
{"sequence": "GTTCTTAAC", "switch fluorescence ratio": 1.03}
{"sequence": "GTTCTTAGAA", "switch fluorescence ratio": 1.17}
{"sequence": "GTTCTTTTAA", "switch fluorescence ratio": 0.937}
{"sequence": "GTTGAAACCG", "switch fluorescence ratio": 1.16}
{"sequence": "GTTGAAATCT", "switch fluorescence ratio": 1.02}
{"sequence": "GTTGAACAGC", "switch fluorescence ratio": 1}
{"sequence": "GTTGAACCTT", "switch fluorescence ratio": 1.75}
{"sequence": "GTTGACAAG", "switch fluorescence ratio": 1.04}
{"sequence": "GTTGACCCAC", "switch fluorescence ratio": 1.34}
{"sequence": "GTTGAGGAAT", "switch fluorescence ratio": 0.977}
{"sequence": "GTTGAGTCGT", "switch fluorescence ratio": 0.973}
{"sequence": "GTTGAGTGGT", "switch fluorescence ratio": 0.973}
{"sequence": "GTTGAGTGTT", "switch fluorescence ratio": 1.01}
{"sequence": "GTTGATAAAC", "switch fluorescence ratio": 0.986}
{"sequence": "GTTGATTATC", "switch fluorescence ratio": 1}
{"sequence": "GTTGCATCTC", "switch fluorescence ratio": 1.02}
{"sequence": "GTTGCCAGGT", "switch fluorescence ratio": 1.03}
{"sequence": "GTTGCCGCCC", "switch fluorescence ratio": 1.01}
{"sequence": "GTTGCGCAAT", "switch fluorescence ratio": 1.39}
{"sequence": "GTTGCGCTTA", "switch fluorescence ratio": 1}
{"sequence": "GTTGCGTGG", "switch fluorescence ratio": 1.01}
{"sequence": "GTTGCTAAGG", "switch fluorescence ratio": 0.973}
{"sequence": "GTTGCTCCCT", "switch fluorescence ratio": 1.06}
{"sequence": "GTTGCTCTAG", "switch fluorescence ratio": 0.983}
{"sequence": "GTTGGAAACG", "switch fluorescence ratio": 0.934}
{"sequence": "GTTGGAGTCT", "switch fluorescence ratio": 0.981}
{"sequence": "GTTGGATGCG", "switch fluorescence ratio": 1.03}
{"sequence": "GTTGGATTCT", "switch fluorescence ratio": 0.978}
{"sequence": "GTTGGCGTTC", "switch fluorescence ratio": 1.03}
{"sequence": "GTTGGGAAA", "switch fluorescence ratio": 1.03}
{"sequence": "GTTGGGAGTG", "switch fluorescence ratio": 0.978}
